Test results reported in PubChem BioAssay AID1346428 (National Center for Advancing Translational Sciences (NCATS), 2018).
About 1,200 (2.5%) of roughly 48,000 compounds were called active. Roughly 2% stayed inconclusive and do not appear here.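 How the source made its calls: active means activation of at least 60% and not above a set upper limit (about 1 call in 100 departs from these limits); inconclusive means activation of 40% to 60%, or above that upper limit; inactive means activation under 40%.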 This is one part of the list.

The compounds below were run against Probable G-protein coupled receptor 32 (Homo sapiens) (UniProt O75388) (assay: qHTS for Agonists of Human Resolvin D1 Receptor DRV1). Details: CHO-K1 GPR32 beta-arrestin PathHunter luminescence, 90 min; at 76.9 µM; hits give high values; zero percent set by DMSO-only wells.
Summary of the method: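 Agonism was scored as beta-arrestin recruitment to ProLink-fused GPR32 in stably transfected CHO-K1 cells, giving a chemiluminescent beta-Gal signal; compounds were incubated 90 min at 37 °C.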
Further: 0% is about no effect.

Chain of UniProt O75388 (O75388 whole entry, looked up, the tested form may be a part): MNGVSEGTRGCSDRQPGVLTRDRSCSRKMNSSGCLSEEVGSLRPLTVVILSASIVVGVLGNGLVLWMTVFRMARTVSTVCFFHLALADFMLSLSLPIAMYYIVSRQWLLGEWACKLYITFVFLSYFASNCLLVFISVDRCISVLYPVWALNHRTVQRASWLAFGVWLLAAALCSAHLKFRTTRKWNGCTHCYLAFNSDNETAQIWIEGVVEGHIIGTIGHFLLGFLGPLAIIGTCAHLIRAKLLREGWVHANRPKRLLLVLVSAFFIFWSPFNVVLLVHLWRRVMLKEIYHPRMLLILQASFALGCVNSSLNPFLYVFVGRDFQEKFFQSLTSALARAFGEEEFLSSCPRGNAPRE

activation, inactive:
O=[N+]([O-])c1cc(-c2nc(-c3cccnc3)no2)ccc1NCc1ccccc1 -6.97%, CC(C)c1ccc(NC(=O)CN2C(=O)COc3ccc(S(=O)(=O)Nc4ccccc4)cc32)cc1 -1.58%, Cc1ccc2oc(=O)c3cnn(CC(=O)Nc4cccc(C(F)(F)F)c4)c3c2c1 -6.81%, O=C(NCC(c1ccco1)S(=O)(=O)c1ccc(Cl)cc1)c1ccccc1F (centres undefined) -6.33%, COc1ccc(CCNC(=O)c2nnc(Cc3ccc(Cl)cc3)o2)cc1OC 7.49%, O=Nc1c(-c2c(O)[nH]c3cc(Br)ccc23)[nH]c2ccccc12 -39.8%, COc1ccc(-c2nn3c(=O)cc(CN4CCN(C(=O)Nc5ccc(C)c(Cl)c5)CC4)nc3s2)cc1 -9.24%, CCC(C)NC(=O)Cn1c(=O)n(-c2ccc(C)cc2)c(=O)c2ccccc21 (centres undefined) -24.9%, CCOC(=O)Cn1c(=O)cc(-c2ccccc2)c2c(C)nn(C)c21 14.8%, CCc1ccc(-n2nc(CO)c(C(=O)NCc3ccccn3)n2)cc1 1.38%, Cc1ccccc1CSc1nc2nc(C)c(Cc3ccccc3)c(C)n2n1 -21.7%, COc1ccc(OC)c(CCNC(=O)c2ccc(CS(=O)Cc3cccc(Cl)c3)o2)c1 (centres undefined) -17%, CCc1ccccc1N(CC)C(=O)c1cc2c(s1)-c1ccccc1OC2 5.12%, Cc1oc2ncnc(N3CCCCC3)c2c1C(=O)NCC1CCN(Cc2ccc(F)cc2)CC1 -2.55%, Cc1nc(-c2ccccc2)sc1-c1ccc(SCC(=O)Nc2ccc(F)cc2F)nn1 0.331%, COCCNc1nc(NCc2ccccc2OC)c2cnn(C)c2n1 1.94%, CC(Sc1oc(-c2ccco2)nc1S(=O)(=O)c1ccc(Br)cc1)c1ccccc1 (centres undefined) -16.2%, COc1ccc(-n2ncc(C(=O)N3CCN(c4ccccn4)CC3)c2C2CCN(C(=O)OC(C)(C)C)CC2)cc1 -3.65%, CCC(CC)c1nn2c(=O)cc(COc3ccc(NC(=O)c4ccc(Cl)cc4)cc3)nc2s1 4.99%, CCCCNc1nc(Oc2ccc(=O)n(-c3ccccc3)n2)nc(N(C)C)n1 2.59%, CN(C(=O)c1nn(C)c2c1COc1ccccc1-2)c1cccc(C(F)(F)F)c1 -12.1%, Cc1nnc(N2CCN(c3ccccc3F)CC2)c2c1nnn2Cc1ccc(F)cc1 -3.34%, CCOc1ccccc1NC(=O)C(NS(=O)(=O)c1cccc2nsnc12)c1ccccc1 (centres undefined) -27.9%, CCOC(=O)c1cn(CC(=O)Nc2cccc(Cl)c2C)nn1 -2.28%, COc1ccc(N2CCN(CCCNC(=O)c3cnn(-c4ccc(F)cc4)c3-n3cccc3)CC2)cc1 10.8%, COc1ccc(N2CCN(c3nc(-c4ccccc4F)nc4ccccc34)CC2)cc1 -24.2%, O=C(CN(c1cccc(Br)c1)S(=O)(=O)c1ccccc1)N1CCc2ccccc2C1 -12.3%, COCCNC(=O)c1c(NC(=O)Cc2coc3cc(C)ccc23)sc2c1CCCC2 -21.3%, CCC(C)NC(=O)c1ccc2c(c1)N(Cc1cccc(Cl)c1)C(=O)c1ccccc1S2=O (centres undefined) -38.5%, Nc1nc(-c2ccccc2)c(Br)c(=O)[nH]1 9.77%, Cc1nc(-c2ccccc2)sc1CCNC(=O)c1ccco1 8.37%, CCc1ccccc1NC(=O)CSc1ncc2c(n1)-c1ccccc1N(Cc1ccc(C)cc1)S2(=O)=O -20.2%, CCN(C(=O)Cn1ncc2c1-c1cc(C)ccc1OC2)c1cc(Cl)ccc1OC -3.99%, COc1ccccc1CNS(=O)(=O)c1c(C)nc2sccn2c1=O -5.44%, CCN(Cc1ccccc1)C(=O)CCNS(=O)(=O)c1ccc2c(c1)CC(C)N2C(C)=O (centres undefined) -1.45%, Cc1ccc(S(=O)(=O)c2cn(Cc3ccccc3)c3cc(N4CCCC4)c(F)cc3c2=O)cc1C -0.343%, COc1cccc(CNC(=O)CCc2c(C)c3cc4c(C)c(C)oc4cc3oc2=O)c1 -14.9%, CCOC(=O)c1ccccc1NS(=O)(=O)c1c(-c2ccc(C)cc2)csc1C(=O)OC -3.59%, CC(C)(C)C(=O)Nc1ccc2nc(SCC(=O)N3CCCC3)sc2c1 -3.14%, O=C(Nc1ccc(NC(=O)c2cccs2)cc1)c1ccc(Br)cc1 -10.5%, CC(C)Oc1ccc(CNC(=O)c2ccc(NC(=O)c3nsc4ccccc34)cc2)cc1 -15.6%, O=C(OCc1ccccc1Cl)c1ccc(-c2nnn(Cc3ccccc3)n2)cc1 -8.87%, COc1ccc(/C=C(/C#N)c2nc(-c3ccc(-c4ccccc4)cc3)cs2)cc1 4.88%, CCN(CCCNC(=O)c1cc2cc3cc(C)ccc3nc2s1)c1cccc(C)c1 -18.6%, NCC1CCC(C(=O)Oc2ccc(CCC(=O)O)cc2)CC1 (centres undefined) -31.3%, Cc1ccc(C)c(NC(=O)C(=O)NCCc2csc(-c3ccc(C(F)(F)F)cc3)n2)c1 -12.9%, Brc1ccc(-c2cc3c(N4CCN(c5ccccc5)CC4)nccn3n2)cc1 -6.87%, Cc1ccccc1NC(=O)c1sc2nc(-c3ccncc3)ccc2c1N 33.2%, O=C(O)c1[nH]n(-c2ccc(S(=O)(=O)O)cc2)c(=O)c1N=Nc1ccc(S(=O)(=O)O)cc1 -68.5%, O=C(CC1C(=O)N(c2ccc(F)cc2)C(=O)N1Cc1cccnc1)Nc1ccc(F)cc1 (centres undefined) -6.07%, CCCCOc1cccc(C(=O)Nc2cc3nn(-c4ccc(F)cc4)nc3cc2C)c1 -15.3%, CCCN(CCC)CCCNC(=O)Cn1ncc2c3ccccc3n(Cc3ccc(F)cc3)c2c1=O -6.91%, CCOC(=O)c1ccc(N2C(=O)c3n[nH]c(-c4cccs4)c3C2c2ccc(C)cc2)cc1 (centres undefined) -5.68%

activation, active:
CCN(CC)CCOc1ccc(/C(=C(\Cl)c2ccccc2)c2ccccc2)cc1 91%
